Source: the supplement of paper PMC11417369
± gives the standard deviation of the averaged measurements. The list shows a part of the results.

The sequences below were run on PfAP2-I AP2 domain 3 (GST-tagged) (assay: gcPBM binding intensity (ln(normalized median fluorescence intensity)); higher = stronger DNA binding).
How it was run: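 Binding intensity is the highest Masliner-normalised natural-log median intensity over replicate spots in either probe orientation. To obtain it, GST-tagged P. falciparum DNA-binding domains made in E. coli were incubated for 1 h on an Agilent 4 × 180k array of primer-extended double-stranded 36-bp intergenic genomic probes plus negative controls. Detection used Alexa488 anti-GST antibody with scanning at 488 nm.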

Row | Sequence | gcPBM binding intensity (ln)
1 | TTTTTATTGTTAATTTTAATTTTTTTTTTTTAATGC [CACACA_negctrl_site162] | 7.33 ± 0.66
2 | TTGTAACCTATGCACGCACACAAGAAAAAAACAAAA [CACACA_site3775] | 9.28 ± 0.13
3 | TTTCTTTTTAAATGCTGTACAAAGGGTGACGTTAAA [XGTACX_site4724] | 8.26 ± 0.33
4 | TATTACACATATTATACACACATATATTATAGATAT [CACACA_site6839] | 7.95 ± 0.41
5 | TATTCCAAATTTACTAGTACATAATCCATCCGATAA [XGTACX_site1558] | 7.63 ± 0.52
6 | TTTCCTTATAAAAATACACACAAACTTTAATTAAAA [CACACA_site7710] | 7.78 ± 0.38
7 | TTGTGAAACATCAAGAAAAAGAAATAATAAAAAGAA [GTGCAC_negctrl_site38] | 7.75 ± 0.61
8 | GTTGAACATATATGCACACACATAAAATAAAAAAAA [CACACA_site2413] | 8.88 ± 0.13
9 | TTATATTAATATATATGTACATATATTTTTTTTATA [XGTACX_site6981] | 7.65 ± 0.3
10 | ATACAACAATGTGAATTATATATGGATGGAGAATGA [GTGCAC_negctrl_site148] | 7.88 ± 0.71
11 | AAAAGGTATCCACATACGCACACCAAAAAAAAAAAT [CACACA_site347] | 8.21 ± 0.19
12 | TCTTTTTTTTTTTTTTTTTTTTTTTATTTATTCATA [CACACA_negctrl_site1827] | 7.8 ± 0.47
13 | TTCTTAAGGAACGAACGTACAGAATAAAAAGTAAAA [XGTACX_site4294] | 8.04 ± 0.66
14 | ACGTAAGCGAATAAAAGTACATATATTAAAAAAAAA [XGTACX_site4458] | 8.09 ± 0.33
15 | AATAGGAAGACTATTTTGTATTTGATTTTTTATTCC [GTGCAC_negctrl_site453] | 7.42 ± 0.73
16 | TAAGTATACGCATACACACACACACCCAAAAAAAAA [CACACA_site425] | 8.15 ± 0.4
17 | CATTCAATTGAAAAATGTACAAAAATAAACATATGC [XGTACX_site1663] | 8.02 ± 0.56
18 | TTTCTATATTGGCATACATGCAAGAACGAAAAGATT [TGCATGCA_site117] | 8.1 ± 0.64
19 | TAAAAATTGCACAGAAGTACAGTATAAATATATATA [XGTACX_site3421] | 8.37 ± 0.38

Row | Sequence | gcPBM binding intensity (ln)
20 | ATAATATATGAGCAATGTACATATTTCTCATTGCAC [XGTACX_site2253] | 9.83 ± 0.78
21 | GTTCCAGGCATTCGTGCGCACAAATAGAAACAATTA [GTGCAC_site9824] | 11.15 ± 0.035
22 | TAAACATACCTATACACACACACACGCACACGCACA [CACACA_site6372] | 8.27 ± 0.4
23 | ATAACTTGTATATATACACACACACCCTTTCTTTTT [CACACA_site8600] | 8.3 ± 0.71
24 | TATATTATATTATACATACACACCCATATAATATGT [CACACA_site869] | 8.14 ± 0.64
25 | TTAAGAAATAACAATGCACACATTTAGGTCTTTTAT [CACACA_site3285] | 9.53 ± 0.38
26 | TTAGATATGTGTAAGGGTACAAAATACTTTACATTT [XGTACX_site8204] | 7.69 ± 0.73
27 | CTTCAATATATTCTTACACACTTAAAAAAAAAAATA [CACACA_site4287] | 7.64 ± 0.5
28 | CTATTATTTTTAAATTGTACTATAACAAAATGTATA [XGTACX_site3916] | 7.64 ± 0.29
29 | AAATAAATCTATAATACACACAAAAATATAAAATGC [CACACA_site7700] | 8.01 ± 0.67
30 | TTTATATTTATATAAATATAATATATATGAATTATA [XGTACX_negctrl_site466] | 7.43 ± 0.21
31 | ATATATATGTTTTATAGTACACACATAAATGGACAT [XGTACX_site4538] | 8.1 ± 0.49
32 | ATAATGTTCCTATGATGTACTTATAATTATCATTTT [XGTACX_site4017] | 8.07 ± 0.44
33 | AAGAGGTTATTACATTCACATAACATCAATATACGT [GTGCAC_negctrl_site264] | 7.62 ± 0.69
34 | ATTAAAATAATATAAACACACATATACTTTTTTCTA [CACACA_site565] | 7.55 ± 0.38
35 | TATTGTTCGTTTAAGGTGCTATTGTTTGCAAAATAT [GTGCAC_site9412] | 9.465 ± 0.021
36 | TGGGAAAACCCCAGAAGTACGCTTAATATAAAAAAT [XGTACX_site697] | 7.79 ± 0.54
37 | TATTATAAATTAATTTTAAACTTTATTATTATGATA [GTGCAC_negctrl_site389] | 7.48 ± 0.27
38 | GTAATGTCGTCGTTTTGTACATATTTTTATAAAAAG [XGTACX_site2688] | 8.18 ± 0.54

Row | Sequence | gcPBM binding intensity (ln)
39 | TTAAAATTATATCTGTGTACATAAATTGTGTAACTA [XGTACX_site1966] | 7.79 ± 0.18
40 | TATTAGTCGAATGATGTACACACATACAAAACATTT [CACACA_site9331] | 7.82 ± 0.52
41 | AAAAAAAAAAAGAACTCACACATAATAATGTATATG [CACACA_site4974] | 7.26 ± 0.51
42 | AAAGGAGACAGAATAAGAATAAATATTATACATATA [XGTACX_negctrl_site412] | 7.3 ± 0.42
43 | ATTTAAAAAAAAATGGCACACATTTTAATTTTATGT [CACACA_site1740] | 7.88 ± 0.37
44 | TTTTTAATGATCAGACGTACAGTTATGAAGAAATTT [XGTACX_site6394] | 8.13 ± 0.52
45 | TTGTGTCATATATTTTGTAATCAAAATAATTTTATT [TGCATGCA_negctrl_site307] | 8.08 ± 0.41
46 | TTTTTGTTTCGTTACGCATGCCAAAAGTAAAAATAT [TGCATGCA_site536] | 8.2 ± 0.56
47 | TATGCTATAATACTCTGTACTTACTAATTTAATAAT [XGTACX_site5926] | 7.96 ± 0.22
48 | ATAAAATAAATGAAAAATGTAAAATGAGAAAAAAAT [CACACA_negctrl_site1026] | 8.09 ± 0.57
49 | TATATATATATATGGGTGCATTTTTTTGTCCATGTA [GTGCAC_site9868] | 10 ± 0.34
50 | TACATATTTTTTATATGTACATATTTTTTATGTGTA [XGTACX_site442] | 7.67 ± 0.18
51 | TTTTATCTCATTCATCAAAATCACCGGAATCATATA [CACACA_negctrl_site357] | 7.62 ± 0.49
52 | TAATAAACAAATTCCAAAATAAATTAAAAGGAAAAT [CACACA_negctrl_site1404] | 7.35 ± 0.59
53 | AGGTATATATTACAAGTGCACTGTAAAATTAAAATT | 10.7 ± 0.22
54 | ATTTATTTATATTTAGTGCAATACTATTTTTAAATA [GTGCAC_site9886] | 10.6 ± 0.64
55 | ATTTTATCATAATAAAGTACAAAGATGCAAATAATA [XGTACX_site2270] | 8.66 ± 0.085
56 | TTTAAAACCCTAAAAAAAAAAAAAAAAAAAAAAAAA [CACACA_negctrl_site1212] | 8.29 ± 1
